Data taken from the supplement of paper PMC10441789.
The other results are listed elsewhere or left out. Antibody binding of pooled human sera (four to six donors per pool; dilution not stated) to peptides of the Trypanosoma cruzi antigen TSSA on microarrays. Quantile-normalised fluorescence in arbitrary units, mean of duplicate arrays; higher = more binding. No active / inactive call. The uninfected pools are read here as the healthy donors of the same country. The strongest signals lie near the top of the scale (about 60,000).

system: pooled sera of uninfected people, Brazil; experiment: antibody binding signal (normalised fluorescence) (arbitrary fluorescence units); higher = stronger serum antibody binding to peptide
Experimental: (§1)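 Microarray of 15-residue peptides over residues 30-55 of Trypanosoma cruzi TSSAII, each with 1 to 10 substitutions at naturally variable positions, probed with one serum pool per country.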

Row | Sequence | antibody binding signal
1 | TDKKTAAGGAPSQPG | 238
2 | DKKAATGETPSQPGA | 409
3 | GTDNKAAAGGTPSPS | 2960
4 | GKDNKTAAGETPSPP | 136
5 | SGTENKPAAGEAPSQ | 207
6 | SGTDNKTAAGGTPSP | 2180
7 | PPSGKEKKTAAGGTP | 636
8 | SGTEKKTATGETPSQ | 322
9 | TENKTAAGEAPSPSG | 229
10 | KTATGEAPSQPGASS | 195
11 | PSGKEKKAAAGEAPS | 103
12 | SGTENKTATGEAPSQ | 187
13 | GTDKKTAAGETPSPP | 162
14 | KDKKAATGGAPSQSG | 103
15 | GKDNKTATGGTPSPP | 128
16 | DNKAAAGETPSQSGA | 159
17 | GTEKKPAAGGAPSPP | 1200
18 | ENKTATGGAPSQSGA | 440
19 | PSGKENKPATGGTPS | 180
20 | PPSGTENKAATGGTP | 366

Row | Sequence | antibody binding signal
21 | EKKPATGGAPSPSGA | 183
22 | PSGTEKKPAAGETPS | 872
23 | KEKKPATGGAPSQPG | 84.5
24 | GKEKKPAAGETPSPS | 93.5
25 | KDKKAATGETPSQSG | 102
26 | GTDNKPAAGGTPSQS | 1390
27 | NKPAAGEAPSQPGAS | 595
28 | KENKTATGGTPSPPG | 135
29 | PSGTEKKTATGETPS | 331
30 | GKENKTATGEAPSPP | 208
31 | GKDNKTATGETPSQS | 183
32 | EKKPATGGTPSPSGA | 954
33 | ENKAAAGGTPSQPGA | 2040
34 | GKDKKAAAGETPSQS | 85.2
35 | GKENKPATGETPSQP | 355
36 | SGKDKKTAAGETPSQ | 101
37 | TENKTAAGGTPSQSG | 1410
38 | GKDKKPAAGEAPSQS | 85.2
39 | GTDKKAATGGTPSQP | 593

system: pooled sera of uninfected people, Colombia; experiment: as above
Experimental: as §1

Row | Sequence | antibody binding signal
40 | TDKKTAAGGAPSQPG | 184
41 | DKKAATGETPSQPGA | 643
42 | GTDNKAAAGGTPSPS | 552
43 | GKDNKTAAGETPSPP | 291
44 | SGTENKPAAGEAPSQ | 128
45 | SGTDNKTAAGGTPSP | 360
46 | PPSGKEKKTAAGGTP | 149
47 | SGTEKKTATGETPSQ | 140
48 | TENKTAAGEAPSPSG | 163
49 | KTATGEAPSQPGASS | 84.1
50 | PSGKEKKAAAGEAPS | 173
51 | SGTENKTATGEAPSQ | 208
52 | GTDKKTAAGETPSPP | 649
53 | KDKKAATGGAPSQSG | 149
54 | GKDNKTATGGTPSPP | 258
55 | DNKAAAGETPSQSGA | 166
56 | GTEKKPAAGGAPSPP | 101
57 | ENKTATGGAPSQSGA | 131
58 | PSGKENKPATGGTPS | 334
59 | PPSGTENKAATGGTP | 698

Row | Sequence | antibody binding signal
60 | EKKPATGGAPSPSGA | 221
61 | PSGTEKKPAAGETPS | 1110
62 | KEKKPATGGAPSQPG | 95.7
63 | GKEKKPAAGETPSPS | 145
64 | KDKKAATGETPSQSG | 212
65 | GTDNKPAAGGTPSQS | 490
66 | NKPAAGEAPSQPGAS | 497
67 | KENKTATGGTPSPPG | 155
68 | PSGTEKKTATGETPS | 208
69 | GKENKTATGEAPSPP | 186
70 | GKDNKTATGETPSQS | 342
71 | EKKPATGGTPSPSGA | 240
72 | ENKAAAGGTPSQPGA | 454
73 | GKDKKAAAGETPSQS | 130
74 | GKENKPATGETPSQP | 139
75 | SGKDKKTAAGETPSQ | 528
76 | TENKTAAGGTPSQSG | 190
77 | GKDKKPAAGEAPSQS | 80
78 | GTDKKAATGGTPSQP | 629

system: pooled sera of uninfected people, Mexico; experiment: as above
Experimental: as §1

Row | Sequence | antibody binding signal
79 | TDKKTAAGGAPSQPG | 260
80 | DKKAATGETPSQPGA | 304
81 | GTDNKAAAGGTPSPS | 213
82 | GKDNKTAAGETPSPP | 158
83 | SGTENKPAAGEAPSQ | 172
84 | SGTDNKTAAGGTPSP | 1610
85 | PPSGKEKKTAAGGTP | 282
86 | SGTEKKTATGETPSQ | 141
87 | TENKTAAGEAPSPSG | 141
88 | KTATGEAPSQPGASS | 191
89 | PSGKEKKAAAGEAPS | 94.4
90 | SGTENKTATGEAPSQ | 213
91 | GTDKKTAAGETPSPP | 218
92 | KDKKAATGGAPSQSG | 89.9
93 | GKDNKTATGGTPSPP | 92.8
94 | DNKAAAGETPSQSGA | 416
95 | GTEKKPAAGGAPSPP | 726
96 | ENKTATGGAPSQSGA | 332
97 | PSGKENKPATGGTPS | 303
98 | PPSGTENKAATGGTP | 309

Row | Sequence | antibody binding signal
99 | EKKPATGGAPSPSGA | 169
100 | PSGTEKKPAAGETPS | 846
101 | KEKKPATGGAPSQPG | 76.9
102 | GKEKKPAAGETPSPS | 89.4
103 | KDKKAATGETPSQSG | 102
104 | GTDNKPAAGGTPSQS | 704
105 | NKPAAGEAPSQPGAS | 221
106 | KENKTATGGTPSPPG | 171
107 | PSGTEKKTATGETPS | 183
108 | GKENKTATGEAPSPP | 187
109 | GKDNKTATGETPSQS | 126
110 | EKKPATGGTPSPSGA | 176
111 | ENKAAAGGTPSQPGA | 946
112 | GKDKKAAAGETPSQS | 77.9
113 | GKENKPATGETPSQP | 1780
114 | SGKDKKTAAGETPSQ | 104
115 | TENKTAAGGTPSQSG | 2300
116 | GKDKKPAAGEAPSQS | 65
117 | GTDKKAATGGTPSQP | 733

system: pooled sera of uninfected people, USA; experiment: as above
Experimental: as §1

Row | Sequence | antibody binding signal
118 | TDKKTAAGGAPSQPG | 127
119 | DKKAATGETPSQPGA | 282
120 | GTDNKAAAGGTPSPS | 94.4
121 | GKDNKTAAGETPSPP | 349
122 | SGTENKPAAGEAPSQ | 116
123 | SGTDNKTAAGGTPSP | 265
124 | PPSGKEKKTAAGGTP | 127
125 | SGTEKKTATGETPSQ | 151
126 | TENKTAAGEAPSPSG | 149
127 | KTATGEAPSQPGASS | 143
128 | PSGKEKKAAAGEAPS | 181
129 | SGTENKTATGEAPSQ | 122
130 | GTDKKTAAGETPSPP | 462
131 | KDKKAATGGAPSQSG | 98.9
132 | GKDNKTATGGTPSPP | 120
133 | DNKAAAGETPSQSGA | 99
134 | GTEKKPAAGGAPSPP | 1620
135 | ENKTATGGAPSQSGA | 196
136 | PSGKENKPATGGTPS | 247
137 | PPSGTENKAATGGTP | 739

Row | Sequence | antibody binding signal
138 | EKKPATGGAPSPSGA | 579
139 | PSGTEKKPAAGETPS | 610
140 | KEKKPATGGAPSQPG | 324
141 | GKEKKPAAGETPSPS | 483
142 | KDKKAATGETPSQSG | 104
143 | GTDNKPAAGGTPSQS | 158
144 | NKPAAGEAPSQPGAS | 1060
145 | KENKTATGGTPSPPG | 128
146 | PSGTEKKTATGETPS | 369
147 | GKENKTATGEAPSPP | 175
148 | GKDNKTATGETPSQS | 166
149 | EKKPATGGTPSPSGA | 710
150 | ENKAAAGGTPSQPGA | 193
151 | GKDKKAAAGETPSQS | 97.4
152 | GKENKPATGETPSQP | 179
153 | SGKDKKTAAGETPSQ | 114
154 | TENKTAAGGTPSQSG | 192
155 | GKDKKPAAGEAPSQS | 66.6
156 | GTDKKAATGGTPSQP | 127
